# In the supplement of paper PMC12217912:
# The other results are listed elsewhere or left out. Sequences were assembled here from the parent chain. Values near 0.05 are background.
# B1: TEV protease; numbered along this chain (parent)
# chain: MGESLFKGPRDYNPISSSICHLTNESDGHTTSLYGIGFGPFIITNKHLFRRNNGTLVVQSLHGVFKVKDTTTLQQHLVDGRDMIIIRMPKDFPPFPQKLKFREPQREERICLVTTNFQTKSMSSMVSDTSCTFPSGDGIFWKHWIQTKDGQCGSPLVSTRDGFIVGIHSASNFTNTNNYFTSVPKNFMELLTNQEAQQWVSGWRLNADSVLWGGHKVFMVKPEEPFQPVKEATQL
# Variants of: B1
# Test: raw area under fraction-flipped curve 0-4 h after induction (AUC4h, not background-subtracted), DNA-recorder readout of cleavage of the substrate (dimensionless); higher = more cleavage of the substrate by the protease variant
# Details: temperature: 34 °C; time window: 0-4 h after rhamnose induction
# Procedure: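 In vivo DNA recorder in E. coli TOP10(DE3) ΔrhaA at 34 °C. Each TEVp single-site mutant (parent TEVp 0) is paired with a single-site variant of the 7-mer TEVs (canonical ENLYFQ|S). The substrate sits between flexible linkers in a Bxb1-sfGFP-TEVs-SsrA fusion, so cleavage stabilises Bxb1 and speeds flipping of a recombination array, read by NGS. The value is the raw area under the fraction-flipped curve over 0-4 h after rhamnose induction (AUC4h), with ≥20 reads per time point. It is not background-subtracted; inactive controls average about 0.047.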
# 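Further: Bxb1 expression induced with 0.2% (w/v) L-rhamnose at OD600 near 0.5, cultures sampled hourly, flipped fraction per protease–substrate barcode pair counted by paired-end Illumina sequencing.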
Variant,area with substrate ENCYFQS,area with substrate ENEYFQS,area with substrate ENFYFQS,area with substrate ENGYFQS,area with substrate ENHYFQS,area with substrate ENKYFQS,area with substrate ENPYFQS,area with substrate ENQYFQS,area with substrate ENRYFQS,area with substrate ENTYFQS,area with substrate ENWYFQS,area with substrate ENDYFQS,area with substrate ENSYFQS,area with substrate ENVYFQS,area with substrate ENMYFQS,area with substrate ENNYFQS,area with substrate ENYYFQS,area with substrate ENIYFQS
H76D,0.0545,0.0229,0.0591,0.0401,0.0728,0.0502,0.0631,0.0269,0.0675,0.0448,0.0566,,,,,,,
D82H,0.0594,0.0526,,0.0629,0.0579,0.0427,0.0476,0.0761,0.0572,,,0.0314,0.0577,0.0752,,,,
R87H,0.0633,0.0434,,0.0739,0.0648,0.0622,0.066,0.0716,0.0606,0.0767,,,,0.0692,0.0665,0.0532,0.0777,
P89L,0.0299,,,,0.0421,0.0676,,,0.034,0.0506,0.0578,0.0463,0.0253,,,,,0.0706
P89Y,0.0584,0.0603,0.0353,0.0538,0.0554,0.0442,0.0565,0.0298,,0.0524,,0.0617,0.0484,,,0.0581,,0.0925
Q97A,0.0705,0.0595,0.0676,0.0581,,,0.0519,0.0524,,0.0783,,0.059,0.0443,0.0741,0.086,0.0644,,
Q97H,0.0512,0.0575,0.0482,,0.0473,0.0659,0.056,0.0602,0.0601,0.0577,,,0.0652,,0.0867,0.0613,,
K98N,0.0613,0.0505,0.0588,0.0526,0.0632,,,0.0625,0.0637,,0.0421,0.0612,0.0615,0.0768,0.0858,,0.0782,0.12
K98S,0.0754,0.0682,,0.0527,0.105,0.0421,0.0464,0.0643,0.063,0.0736,,0.0647,,0.0692,0.0664,0.0388,0.0607,0.104
L99Q,0.072,,,0.0542,,0.0533,,,,0.0609,,0.0571,,,0.0368,0.0911,,
R102M,0.0541,0.0408,,0.0471,0.0546,0.0462,,0.0408,0.049,0.0466,0.0716,0.056,,0.0712,,,0.0521,0.0629
C111H,0.0821,0.0701,0.0816,0.0536,0.0618,0.0678,,0.0506,0.0616,,,0.0544,0.0497,0.094,,,,
V113S,0.102,0.0741,0.0546,,0.0461,,,0.0598,0.0648,0.0562,,0.0541,0.053,0.053,0.0548,0.0629,0.047,0.0323
T115Y,0.0565,,0.056,,,,0.0517,0.0644,0.0459,0.0533,,0.0591,0.0608,,,0.0681,0.0724,0.128
P134W,0.0532,0.0496,0.073,0.0438,,,,0.0608,0.0414,,,0.0451,0.0605,,,0.053,0.0185,
Q146V,0.0754,,0.058,,0.0379,0.0754,,,0.0609,,,0.0467,0.0568,0.0775,,0.0964,,0.101
T147M,0.0513,,,,0.0603,0.072,,0.0553,,0.0531,0.047,0.0571,,,,0.0488,,
V157E,0.0369,,0.0412,,0.0494,0.0498,,0.0783,0.0589,,,0.055,0.0745,0.047,0.0477,0.0415,,0.0462
S158N,0.0697,0.0728,0.0566,,,0.0502,,0.0581,,,,0.0647,0.0594,0.0741,,,,
F163I,0.0642,0.0578,0.0904,0.0509,,0.0682,,0.057,0.0537,0.053,0.0755,0.0452,,0.0717,0.097,0.05,,0.102
A170Y,0.0642,,,0.0625,0.0604,,0.0708,0.0623,0.0522,,,0.0691,0.0531,0.0564,0.0518,0.0566,,0.0599
Y179E,0.0637,,0.0614,,,0.0642,,0.0551,,,0,,0.0661,0.0562,,0.0691,,
P184F,0.0952,0.0721,,,0.0674,0.0614,0.0647,0.0518,0.0337,0.0585,0.0613,0.0504,0.0585,0.0527,,,0.0598,
F187Y,0.07,0.0644,0.0549,0.0606,,0.0486,,0.0539,,,,0.0637,0.0587,0.0659,0.0597,0.0591,0.064,0.0816
